Laboratory results: the DeepSol protein solubility set

Assay: soluble on expression in E. coli; label from the status in PepcDB or PDB records

| Sequence | soluble on expression in E. coli |
| --- | --- |
| MALSMPLNGLKEEDKEPLIELFVKAGSDGESIGNCPFSQRLFMILWLKGVVFSVTTVDLKRKPADLQNLAPGTHPPFITFNSEVKTDVNKIEEFLEEVLCPPKYLKLSPKHPESNTAGMDIFAKFSAYIKNSRPEANEALERGLLKTLQKLDEYLNSPLPDEIDENSMEDIKFSTRKFLDGNEMTLADCNLLPKLHIVKVVAKKYRNFDIPKEMTGIWRYLTNAYSRDEFTNTCPSDKEVEIAYSDVAKRLPSKVPKGEFQHTGGRY | soluble |
| MIWQGRSRRKPSGGFYRKARKKRKYELGREQVETLIGERKVKKIRVRGGNYKLKLFADKYANVYDPKQGKVVRVEIESVVENPAHVHYARRNVITKGAIIATSIGKARVTNRPSQEGVVNAVLIELEHHHHHH | soluble |
